# Source: the supplement of paper PMC9446081
# The whole screen tested about 39,000 compounds, of which about 220 (0.56%) showed activity. This is one part of the list.
# Test system: Escherichia coli K-12 BW25113
# Experiment: relative growth (OD600 normalised to plate interquartile mean) (fraction); higher = less growth inhibition, active = 0.2 or less
# Details: 50 µM; LB; incubation time: overnight (16-24 h)
# 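Further: static incubation at 37 °C against the wild-type strain, values averaged over two biological replicates.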
row,SMILES,relative growth
1,NCCCC[C@H](NC(=O)[C@@H]1CCCN1C(=O)[C@@H]1CSSC[C@H](N)C(=O)N[C@@H](Cc2ccccc2)C(=O)N[C@@H](Cc2ccccc2)C(=O)NC(CCC(N)=O)C(=O)N[C@@H](CC(N)=O)C(=O)N1)C(=O)NCC(N)=O (stereo partly drawn),inactive: 0.97
2,COCC(=O)Nc1ccc2c(c1)C(=O)N(C)[C@@H]1CC[C@H](CC(=O)N3CCc4ccccc4C3)O[C@H]1CO2,inactive: 0.995
3,CO[C@@H]1CN(C)C(=O)c2ccc(NS(=O)(=O)c3cn(C)cn3)cc2OC[C@H](C)N(CC2CC2)C[C@@H]1C,inactive: 1
4,COc1ccc(S(=O)(=O)N2C[C@H](O)COC[C@H]3O[C@H](CC(=O)NCCN4CCCCC4)CC[C@@H]32)cc1,inactive: 1
5,NCCC[C@@H](N)CC(=O)NC[C@H]1NC(=O)[C@@H](CO)NC(=O)[C@@H](N)CNC(=O)[C@H]([C@H]2CCN=C(N)N2)NC(=O)C(C=NC(N)=O)NC1=O (stereo partly drawn),inactive: 0.892
6,C[C@@H]1CN([C@H](C)CO)C(=O)c2cc(NC(=O)C3CC3)ccc2O[C@@H]1CN(C)Cc1ccc(-c2ccccc2)cc1,inactive: 1.01
7,C[C@H](CO)N1C[C@H](C)[C@@H](CN(C)CC2CC2)OCCCC[C@H](C)Oc2ccc(NC(=O)Nc3ccc(F)cc3)cc2C1=O,inactive: 0.987
8,C[C@@H]1CN([C@@H](C)CO)C(=O)Cc2cc(NC(=O)C3CC3)ccc2O[C@@H]1CN(C)C(=O)Nc1ccc(F)cc1,inactive: 0.956
9,COc1ccc(NC(=O)Nc2ccc3c(c2)C(=O)N([C@@H](C)CO)C[C@@H](C)[C@@H](CN(C)Cc2ccc(-c4ccccc4)cc2)O3)cc1,inactive: 1.08
10,C[C@@H]1CN([C@@H](C)CO)C(=O)Cc2cc(NS(C)(=O)=O)ccc2O[C@H]1CN(C)C(=O)NC1CCCCC1,inactive: 0.981
11,C[C@H]1CN([C@@H](C)CO)S(=O)(=O)c2ccc(C#Cc3ccccc3)cc2O[C@H]1CN(C)S(=O)(=O)c1ccccc1F,inactive: 1.04
12,CN(C)CCNC(=O)c1ccccn1,inactive: 1.03
13,OCc1ccccn1,inactive: 1.01
14,CN1CCCC1CCOC(C)(c1ccccc1)c1ccc(Cl)cc1.O=C(O)C=CC(=O)O (stereo not drawn),inactive: 1.01
15,O=C(C[C@@H]1C=C[C@@H](NC(=O)c2cccc(F)c2)[C@@H](CO)O1)NCCN1CCCC1,inactive: 0.997
16,Cc1ccc(S(=O)(=O)Nc2cccc3c2O[C@H](CN(C)S(=O)(=O)c2cccs2)[C@@H](C)CN([C@@H](C)CO)C3=O)cc1,inactive: 1
17,C[C@@H]1CN([C@H](C)CO)C(=O)Cc2cc(NC(=O)Cc3cn(C)c4ccccc34)ccc2O[C@H]1CN(C)Cc1ccc(-c2ccccc2)cc1,inactive: 1.02
18,C[C@@H]1CN([C@@H](C)CO)C(=O)c2cc(NC(=O)Nc3ccc(F)cc3)ccc2O[C@@H](C)CCCCO[C@H]1CN(C)Cc1ccc2c(c1)OCO2,inactive: 0.993
19,COCC#Cc1ccc([C@H]2[C@@H](CO)N3C(=O)CN(C(=O)c4cccnc4)C[C@H]23)cc1,inactive: 0.997

row,SMILES,relative growth
1,C[C@@H]1CN([C@@H](C)CO)C(=O)Cc2cc(NS(C)(=O)=O)ccc2O[C@H]1CN(C)Cc1ccc(C(F)(F)F)cc1,inactive: 0.972
2,C[C@@H]1CCCCO[C@@H](CN(C)Cc2ccccc2)[C@H](C)CN([C@H](C)CO)C(=O)c2cc(NC(=O)c3ccccc3)ccc2O1,inactive: 0.983
3,CCO[C@@H]1OC(C(=O)N2CCN(Cc3ccccc3)CC2)=C[C@H](C)[C@H]1CCCOC(=O)NCCCCCC(=O)NO,inactive: 1.02
4,COc1ccc(NC(=O)Nc2ccc3c(c2)C(=O)N([C@@H](C)CO)C[C@@H](C)[C@H](CN(C)C(=O)CCC(F)(F)F)OCCCC[C@@H](C)O3)cc1,inactive: 1.02
5,CCCN(C)C[C@H]1OCCCC[C@@H](C)Oc2ccc(NC(=O)c3ccccc3)cc2C(=O)N([C@H](C)CO)C[C@@H]1C,inactive: 1
6,C[C@H]1CN([C@@H](C)CO)C(=O)c2cccc(NC(=O)C3CCCCC3)c2O[C@H]1CN(C)Cc1ccc(Cl)c(Cl)c1,inactive: 0.992
7,C[C@H]1CN([C@@H](C)CO)C(=O)c2cccc(NC(=O)C3CC3)c2O[C@H]1CN(C)Cc1ccc(-c2ccccc2)cc1,inactive: 1.01
8,COCC#Cc1ccc([C@H]2[C@@H](CO)N3C(=O)CN(C(=O)C4CCOCC4)C[C@H]23)cc1,inactive: 0.992
9,C[C@@H]1CN([C@H](C)CO)C(=O)c2cc(C#CC3CCCCC3)cnc2O[C@H]1CN(C)C(=O)c1ccncc1,inactive: 0.982
10,CCOC(=O)c1c(CN2CCN(c3ccccc3)CC2)n(-c2ccccc2)c2cc(Br)c(OC)cc12,inactive: 1.03
11,C=C1CCOC(=O)[C@@H](NC(C)=O)CCCN(O)C(=O)/C=C(\C)CCOC(=O)[C@H](NC(C)=O)CCCN(O)C(=O)/C=C(\C)CCOC(=O)[C@@H](NC(C)=O)CCCN(O)C(=O)C1,inactive: 0.817
12,C[C@H](CO)N1C[C@H](C)[C@H](CN(C)C(=O)Nc2ccc3c(c2)OCO3)Oc2c(NC(=O)Nc3cccc4ccccc34)cccc2C1=O,inactive: 0.971
13,Cc1ccc(S(=O)(=O)N(C)C[C@@H]2Oc3c(NS(=O)(=O)c4cn(C)cn4)cccc3C(=O)N([C@H](C)CO)C[C@H]2C)cc1,inactive: 1.01
14,C[C@@H]1CN([C@H](C)CO)C(=O)c2cc(NS(=O)(=O)c3ccc(Cl)cc3)ccc2O[C@@H](C)CCCCO[C@@H]1CN(C)C(=O)Cc1ccccc1,inactive: 1.02
15,Cc1ccc(S(=O)(=O)N[C@@H]2C=C[C@@H](CC(=O)NCCN3CCCCC3)O[C@H]2CO)cc1,inactive: 1
16,C[C@@H]1CN([C@H](C)CO)C(=O)c2cc(NC(=O)Nc3ccc4c(c3)OCO4)ccc2O[C@@H](C)CCCCO[C@@H]1CN(C)S(=O)(=O)c1ccc(Cl)cc1,inactive: 1.01
17,Cc1ccnc(=O)[nH]1,inactive: 0.947
18,COc1cccc(S(=O)(=O)N(C)C[C@H]2Oc3cc(C#CCN(C)C)ccc3S(=O)(=O)N([C@H](C)CO)C[C@@H]2C)c1,inactive: 0.968
19,CC(C)NC(=O)N(C)C[C@H]1Oc2c(NC(=O)Nc3ccc4c(c3)OCO4)cccc2C(=O)N([C@@H](C)CO)C[C@H]1C,inactive: 0.993
